The values that follow come from a compilation of properties of binary mixtures (doi:10.1021/ie303238h).

The densities may have been worked out from excess volumes.

The mass density is the mass of a sample divided by its volume.

This data set in a line: xn = mol fraction of the nth substance listed. Particulars: 298.15 K, 100 kPa.

`CC[n+]1ccn(C)c1.O=S(=O)([N-]S(=O)(=O)C(F)(F)F)C(F)(F)F` + CCCC[n+]1ccn(C)c1.CCOS(=O)(=O)[O-] yielded a mass density (x1 = 1) of 1518.9 kg/m3.
As to `CCCC[n+]1ccn(C)c1.CCOS(=O)(=O)[O-]` + CC[n+]1ccn(C)c1.O=S(=O)([N-]S(=O)(=O)C(F)(F)F)C(F)(F)F, the mass density by setting is: (x2 = 0.1009) 1189.5 kg/m3; (x2 = 0.2031) 1227.6 kg/m3; (x2 = 0.2951) 1261.6 kg/m3; (x2 = 0.4027) 1301.5 kg/m3; (x2 = 0.5989) 1373.5 kg/m3; (x2 = 0.8024) 1447.5 kg/m3. For the same compound, for the setting “x2 = 0.8996”, the mass density was determined as 1482.6 kg/m3.
`CC[n+]1ccn(C)c1.O=S(=O)([N-]S(=O)(=O)C(F)(F)F)C(F)(F)F` + CCOS(=O)(=O)[O-].CC[n+]1ccn(C)c1: the mass density is 1305.7 kg/m3 (x1 = 0.2008); 1376.8 kg/m3 (x1 = 0.4356); 1393.3 kg/m3 (x1 = 0.494); 1421.8 kg/m3 (x1 = 0.5982); 1448 kg/m3 (x1 = 0.6996); 1472.9 kg/m3 (x1 = 0.8). Besides, the mass density by setting is: (x1 = 0.9025) 1496.9 kg/m3; (x1 = 1) 1518.9 kg/m3.
